About 120 (0.25%) of roughly 48,000 compounds were called active. About 4% were inconclusive and are not listed. Calls follow the shape of the dose curve; as a rule, active = well fitted activation curve with a large enough effect; inconclusive = small, poorly fitted or top-dose-only effect, or another doubt; inactive = no such curve, though single readings can be large or run the other way. This is one part of the list.
Assay: Primary qHTS for Identification of Small Molecule Activators of Huntingtin-Antisense Promoter Activity; also: nearly all actives have a fitted effect of over 55% in size
Conditions: HEK293 HTT-AS promoter firefly luciferase reporter, 24 h; series mostly up to 57.5 µM; activity change, positive = activation: at the top concentration
How it was run: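 Firefly luciferase readout (Dual-Glo, 10 min RT) after 24 h, 37 °C compound exposure (final up to 57.5 uM) of HEK293 reporter cells cultured 24 h beforehand; PTC124 at 50 uM final as control inhibitor; activity scaled vehicle 0%, zero RLU -100%.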

SMILES	activity change, positive = activation
COc1cc(C2Nc3ccccc3-c3nnc(SCc4ccc(Cl)cc4)nc3O2)ccc1OCC(=O)O (stereo unspecified)	inactive: 11.5% [at 11.5 µM, percent change from vehicle, -100% = no light]
Cc1ccc2c(CC(=O)Nc3ccc(S(=O)(=O)Nc4nc(C)cc(C)n4)cc3)coc2c1	inactive: -17.4%
COC(=O)c1ccc(NC(=O)c2nn(C)c3c2COc2ccccc2-3)cc1	inactive: 1.74%
CCOc1ccc(OCC(=O)NCCS(=O)(=O)N2CCN(c3ccc(OC)cc3)CC2)cc1	inactive: 3.67%
Cc1ccc(NC(=O)Cn2c(=O)n(CCc3ccccc3)c(=O)c3sc4ccccc4c32)cc1C	inactive: 3.32%
COc1ccccc1CNS(=O)(=O)c1cc(-c2cc(C)no2)ccc1C	inactive: -28%
Cc1nn(CCCC(=O)NCCc2ccc(Cl)cc2)c(=O)c2nn(-c3ccccc3)c(C)c12	inactive: -15.2%
O=C(NCc1cccc(Cl)c1)c1oc(=O)c2ccccc2c1-c1ccccc1	inactive: -13.3%
CCn1c(=O)c(C(=O)Nc2cc(OC)c(OC)c(OC)c2)nc2ccccc21	inactive: 6.81%
COc1ccc(C2CC(=O)c3cc(-c4nc(-c5cccc([N+](=O)[O-])c5)cs4)c(=O)n(-c4ccccc4C)c3C2)cc1 (stereo unspecified)	inactive: -17.1%
O=C(NCc1ccccc1F)c1cccc(NC(=O)N2CCSc3ncccc32)c1	inactive: -12.9%
CCN(CC)CCOC(=O)c1ccc(N)cc1	inactive: -3.42%
O=C(COc1ccccc1)NCCc1csc(-c2ccc(F)cc2)n1	inactive: -14.4%
CC1(c2ccccc2)OC(C(=O)O)=CC1=O (stereo unspecified)	inactive: -5.58%
CN(C(=O)Cn1c(=O)n(Cc2ccc(C(=O)NCc3ccc4c(c3)OCO4)cc2)c(=O)c2ccccc21)c1ccccc1	inactive: -21.5%
COc1ccc(CNC(=O)CCc2nc3cccnc3n2Cc2ccc(OC)cc2)cc1	inactive: -9.22%
Cc1cccc(C)c1NC(=O)CN(CC(=O)O)CC(=O)O	inactive: -1.88%
CCCCOc1ccc(Cn2c(=O)oc3ccccc32)cc1	inactive: -5.4%
O=C(Cn1cc(S(=O)(=O)Cc2cccc(Cl)c2)c2ccccc21)Nc1ccc(F)c(Cl)c1	inactive: -43.8%
Cc1ccccc1Cc1c(C)nc2c(-c3ccccc3)c(C)[nH]n2c1=O	inactive: -46.3%
Cn1c2ccccc2c2c(C(=O)N3CCN(c4cccc(C(F)(F)F)c4)CC3)cn(C3CCCCC3)c(=O)c21	inactive: -25.9%
Cc1ccc(-c2cn3nc(N4CCC(C(=O)Nc5ccccc5C)CC4)sc3n2)cc1	inactive: 27.4%
CCOc1ccccc1CNC(=O)C1CCN(Cc2cc3ccccc3n2Cc2ccccc2)CC1	inactive: -20.5%

SMILES	activity change, positive = activation
Cc1ccc2oc(C(=O)Nc3ccc(S(=O)(=O)Nc4ncccn4)cc3)cc(=O)c2c1	inactive: 16.3% [at 11.5 µM, percent change from vehicle, -100% = no light]
CN(C)S(=O)(=O)N(CC(=O)NCCSc1ccc(Cl)cc1)c1ccccc1	inactive: -19.3%
CCC(C(=O)Nc1cc(OC)ccc1OC)n1nc(-c2ccccc2)c2c(c1=O)CCCC2 (stereo unspecified)	inactive: -45.7%
COc1cc2nc(NC(=O)c3ccc(S(=O)(=O)N4CCCC4)cc3)sc2cc1OC	inactive: -16.2%
O=C(COCc1cc(-c2ccc3c(c2)OCO3)on1)N1CCN(c2cccc(C(F)(F)F)c2)CC1	inactive: -21.1%
CCCS(=O)(=O)c1nc(S(=O)(=O)c2ccc(C)cc2)c(NC(C)c2ccccc2)s1 (stereo unspecified)	inactive: -19.2%
Cc1cc(C)c2oc(C(=O)Nc3nc4ccc(Cl)cc4s3)cc(=O)c2c1	inactive: -12%
Cc1cccc(Cn2c(SCc3ccc(C(=O)NCc4ccccc4F)cc3)nc3cccnc32)c1	inactive: -28.1%
Cc1ccc(-n2ccnc(NCc3cccs3)c2=O)cc1C	inactive: -10.4%
COc1cccc(NS(=O)(=O)c2ccc3[nH]cc(C(=O)NCCc4ccc(C)cc4)c(=O)c3c2)c1	inactive: -35.7%
CN1C(C(=O)NC(C)(C)C)=CC(c2ccc3c(c2)OCO3)=NS1(=O)=O	inactive: -16%
COc1ccccc1C(=O)NCCc1csc(-c2ccc(C(F)(F)F)cc2)n1	inactive: -37.5%
COc1cc(NC(=O)Cn2c(=O)n(CC3CCCO3)c(=O)c3cc(OC)c(OC)cc32)cc(OC)c1 (stereo unspecified)	inactive: -12.7%
CCOCCc1nn2c(=O)cc(COC(=O)c3ccc(NC(=O)c4ccc(F)cc4)cc3)nc2s1	inactive: -14.1%
CCc1ccc(C2CC(=O)N(c3cccc(C(F)(F)F)c3)C3=C2C(=O)OC3)cc1 (stereo unspecified)	inactive: -29.1%
Cc1ccc(C)c(NC2=C(c3ccc(C(F)(F)F)cc3)C(=O)c3ccccc32)c1	inactive: -24.8%
CC[C@H](C)C(=O)O[C@H]1C[C@@H](C)C=C2C=C[C@H](C)[C@H](CC[C@@H]3C[C@@H](O)CC(=O)O3)[C@H]21	inactive
CC(=O)N1CCc2cc(CNC(=O)Nc3ccccc3C(F)(F)F)ccc21	inactive: 4.86%
Cc1cccc(Cn2nnc3c(=O)[nH]c(C4CCCN(C(=O)c5ccc(C(C)(C)C)cc5)C4)nc32)c1 (stereo unspecified)	inactive: -32.6%
COc1ccc2c(CNC3CCC(C)CC3)c(C(=O)O)n(Cc3ccccc3)c2c1 (stereo unspecified)	inactive: -23%
Clc1ccc(C(Cn2ccnc2)OCc2ccc(Sc3ccccc3)cc2)c(Cl)c1 (stereo unspecified)	inactive
CN(C(=O)NCc1noc2ccccc12)c1cccc(Cl)c1	inactive: -13.5%
COc1ccccc1NC(=O)C1=C(C)Nc2nc(SCc3ccccc3Cl)nn2C1c1cccnc1 (stereo unspecified)	inactive: -6.77%

Source: PubChem BioAssay AID1508624 (National Center for Advancing Translational Sciences (NCATS), 2021)
